Experimental data published in PubChem BioAssay AID1347073 (National Center for Advancing Translational Sciences (NCATS), 2019).
The campaign covered roughly 45,000 compounds. About 200 (0.44%) were called active. Inconclusive results (about 7%) are left out. Calls come from the whole dose curve; as a rule, active = well fitted activation curve with a large enough effect; inconclusive = small, poorly fitted or top-dose-only effect; inactive = no such curve, though single readings can be large or run the other way. The list shows a part of the results.

Experiment: qHTS of TDP-43 Inhibitors: NCGC Sytravon Library Screen; note: 0% is about no effect; nearly all actives have a fitted effect of over 55% in size
Settings: yeast TDP-43 toxicity rescue, BacTiter-Glo growth, 24 h; series mostly up to 46.1 µM; growth rescue (activation): at the top concentration
From the text: The goal of this project is to identify new chemical probes capable of reversing the toxicity associated with TDP-43 which is associated with frontotemporal lobar degeneration and amyotrophic lateral sclerosis. These compounds will provide a complementary approach to deciphering the tangled mechanisms of toxicity and protection that we have uncovered through genome-wide genetic screens and are beginning to uncover in a large-scale proteomics analysis with mass spectroscopy. To this end, a miniaturized assay was developed to be screened against the Molecular Libraries Small Molecule Repository (MLSMR) to discover TDP-43 inhibitors. Please note that in the set-up this yeast-based assay compounds that inhibit as TDP-43, have a read-out as activators. NIH Chemical Genomics Center [NCGC] NIH Molecular Libraries Probe Centers Network [MLPCN] Assay Submitter (PI): Susan Lindquist, Whitehead Institute/MIT MLPCN Grant: R21 NS060957
Dispense 2.5 microL yeast galactose medium per 1536-well plate, pin compound, dispense 2.5 microL TDP-43 expressing yeast in galactose medium at OD600=0.02 (pregrown in raffinose medium to mid-log phase) per well, incubate for 24 hr at 30 deg C, and cell growth will be measured using 5 microL of Bactiter/Glo reagent to entire plate and read using Luminescence Protocol in ViewLux.

| SMILES | growth rescue (activation) |
| --- | --- |
| COc1ccc(C(=O)Nc2ccccc2C(=O)Nc2ccccn2)cc1 | inactive: 9.88% |
| CC1CC(=O)Nc2ccccc2N1C(=O)CN1C(=O)C(=O)N(C)C1=O (stereo unspecified) | inactive: -4.1% |
| Cc1cc(C)cc(OCC(=O)Nc2ccc3c(c2)OCO3)c1 | inactive: 9.3% |
| O=C(Nc1nnc(-c2ccccc2)s1)c1ccc(F)cc1 | inactive: 5.22% |
| CC1Cc2ccccc2N1S(=O)(=O)c1cccc(C(=O)N2CCN(c3ncccn3)CC2)c1 (stereo unspecified) | inactive: 8.57% |
| O=c1nc2ccccc2c2n1CC(CN1CCN(c3ccccc3F)CC1)N2 (stereo unspecified) | inactive: -5.95% |
| Cc1cccc(N(CC(=O)NC2CCCCC2)C(=O)CCC(=O)Nc2nccs2)c1 | inactive: 5.19% |
| CCCNC(=S)N1CCC(C(=O)c2ccc(F)cc2)CC1 | inactive: 27.6% |
| O=C(c1cccc(S(=O)(=O)Nc2cccc(C(F)(F)F)c2)c1)N1CCOCC1 | inactive: 35.7% |
| Cc1cc(OCc2nnc(SCC(=O)O)n2-c2ccccc2)ccc1Cl | inactive: 5.76% |
| COc1ccc(Cl)cc1S(=O)(=O)N1CCC(C(=O)NCc2ccco2)CC1 | inactive: 11.1% |
| CCCn1c(SCC(=O)c2c[nH]c3ccccc23)nnc1-c1ccncc1 | inactive: 18.4% |
| Cc1cc(N2CCN(c3ccccc3F)CC2)nc2cc(O)ccc12 | inactive: 28% |
| CCOC(=O)c1c(NC(=O)c2noc(C)c2[N+](=O)[O-])sc(C(C)=O)c1C | inactive: 6.57% |
| COCCNC(=O)c1ccc2c(c1)ncn2-c1ccc(C)c(Cl)c1 | inactive: 30.3% |
| CC(=O)C(Cc1ccccc1)NC(=O)COC(=O)c1ccc(-n2cnnn2)cc1 (stereo unspecified) | inactive: 17.2% |
| Cc1ccc(S(=O)(=O)NCC(C)n2cncn2)cc1 (stereo unspecified) | inactive: 5.4% |
| COc1ccc(OC)c(-c2csc(-c3cccs3)n2)c1 | inactive: -4.26% |
| Cc1occc1-c1nnc(SCC(=O)NC(C)(C)C)n1CC(C)C | inactive: 10.9% |
| CCCCNC(=O)N1CCN(C(=O)C2CCCO2)CC1 (stereo unspecified) | inactive: -11.1% |
| COc1ccc(NC(=S)NC(C)c2ccncc2)cc1OC (stereo unspecified) | inactive: 8.9% |
| CCN(CC)CCN1C(=O)C2C(C(=O)Nc3cccc(SC)c3)C3C=CC2(O3)C1C(=O)NC1CCCC(C)C1C (stereo unspecified) | inactive: 3.07% |

| SMILES | growth rescue (activation) |
| --- | --- |
| Cc1cc(-c2n[nH]c(=S)n2/N=C/c2cc([N+](=O)[O-])ccc2Cl)n[nH]1 | inactive: -20.2% |
| Cc1ccc(-c2nn(-c3ccccc3)cc2/C=C/C(=O)Nc2nccs2)cc1 | inactive: 20.6% |
| COc1ccc(CCCC(=O)N/N=C/c2ccc(C)cc2)cc1 | inactive: 15.7% |
| COc1ccc(S(=O)(=O)Nc2ccc(F)c(F)c2)cc1C(=O)N1CCOCC1 | inactive: -8.72% |
| CCOC(=O)C1(C)CCCCCN1C(=O)c1ccco1 (stereo unspecified) | inactive: 12.1% |
| Cc1ccc(S(=O)(=O)CC(=O)Nc2cccc(C)n2)cc1 | inactive: 8.39% |
| c1ccc(CCn2cnc3ccccc32)cc1 | inactive: -4.31% |
| CCOC(=O)N1CCN(C(=O)c2cn(CC)c3ccc(S(=O)(=O)N4CCC(C)CC4)cc3c2=O)CC1 | inactive: 2.44% |
| CCn1c(=O)c(C(=O)NNC(=O)c2cccc(Cl)c2)c(O)c2ccccc21 | inactive: -16.3% |
| Cn1c(CNC(=O)c2ccccc2F)nnc1SCc1ccc(Cl)cc1 | inactive: 11.5% |
| CCOc1ncccc1C(=O)Nc1cccc(-c2nnc3n2CCCCC3)c1 | inactive: 18.3% |
| CC1CN(c2nc3c(c(=O)n(C)c(=O)n3C)n2Cc2c(Cl)cccc2Cl)CC(C)O1 (stereo unspecified) | inactive: -7.35% |
| CC(=O)NC(CC(=O)OCc1ccc([N+](=O)[O-])cc1)c1ccccc1 (stereo unspecified) | inactive: -4.83% |
| O=C(Nc1cccc(C(=O)O)c1)/C(=C\C=C\c1ccccc1)NC(=O)c1ccccc1 | inactive: -0.766% |
| CCCC/C=C1\CCc2c([nH]c3ccccc23)C1=O | inactive: 26.6% |
| Cn1c(SCC(=O)Nc2ccc(Cl)cc2F)nnc1-c1ccco1 | inactive: 45.4% |
| CCc1ccc2c(CN3CCN(S(=O)(=O)c4ccccc4F)CC3)cc(=O)oc2c1 | inactive: 7.52% |
| O=C(CS(=O)CC(=O)Nc1ccc(Cl)cc1)NCC1OCCc2ccccc21 (stereo unspecified) | inactive: 5.08% |
| C/C(=N\OC(=O)c1ccc(Br)cc1)c1ccccn1 | inactive: 25.9% |
| CCOC(=O)N1CCN(C(=O)c2ccccc2NC(=O)COc2ccccc2)CC1 | inactive: 2.84% |
| COc1ccc(/C=N/Nc2nnc(Cc3ccc(OC)c(OC)c3)c(=O)[nH]2)cc1OC | inactive: 18.4% |
| CC(C)(C)c1ccc(S(=O)(=O)NCc2ccc(C(=O)NCc3ccccn3)cc2)cc1 | inactive: 7.8% |

| SMILES | growth rescue (activation) |
| --- | --- |
| CC(=O)Nc1ccc(C)c([N+](=O)[O-])c1 | inactive: -1.86% |
| O=C(CN(c1ccccc1F)S(=O)(=O)c1ccccc1)Nc1ccccc1C(=O)N1CCOCC1 | inactive: 12.6% |
| O=C(Nc1nc2ccccc2s1)c1ccc(N2CCCCC2)c([N+](=O)[O-])c1 | inactive: -7.06% |
| CCOC(=O)NC(Cc1c[nH]c2ccccc12)C(=O)NCCc1ccc(S(N)(=O)=O)cc1 (stereo unspecified) | inactive: 4.67% |
| O=C(Nc1ccc(S(=O)(=O)N2CCOCC2)cc1)c1ccc(S(=O)(=O)N2CCOCC2)cc1 | inactive: -6.47% |
| COc1ccccc1CCNC(=O)CNC(=O)Cc1cccc2ccccc12 | inactive: 9.42% |
| CCOC(=O)N1CCC(N(CCN(C)C)C(=S)Nc2ccccc2C)CC1 | inactive: -26% |
| CC(C)CN(C(=O)CN1CCN(c2ccccc2F)CC1)c1c(N)n(CC(C)C)c(=O)[nH]c1=O | inactive: -0.966% |
| O=C(NCCc1nc2ccccc2[nH]1)/C(=C/c1ccc2c(c1)OCO2)NC(=O)c1ccc(Cl)cc1Cl | inactive: -3.97% |
| CCCOc1ccc(C(=O)NC2CCSc3ccccc32)cc1 (stereo unspecified) | inactive: 18.4% |
| COc1ccc(Cn2c(C)nc3oc4cc(OC)ccc4c(=O)c3c2=O)cc1 | inactive: 1.45% |
| COc1cccc(CC(=O)Nc2nc(-c3ccc(F)c(F)c3)cs2)c1 | inactive: 8.27% |
| O=C(N/N=C/c1cc([N+](=O)[O-])ccc1O)c1cccc(NC(=O)c2cccc(Cl)c2)c1 | inactive: 7.42% |
| O=C(NCC(=O)N1CCN(C(c2ccccc2)c2ccccc2)CC1)c1ccccc1F | inactive: -17.5% |
| Cc1onc(-c2c(Cl)cccc2Cl)c1C(=O)NC1CCCCC1 | inactive: 30.4% |
| Cc1nn(-c2ccccc2)c(N2CCCC2)c1C=O | inactive: -5.82% |
| COc1ccc2[nH]c(=O)c(CN(C(=O)c3ccco3)C(C)C)cc2c1 | inactive: -8.32% |
| N#C/C(C(=O)NCCc1ccccc1)=C1/N=C(NC(=O)c2cccs2)c2ccccc21 | inactive: 17.7% |
| COc1cc(NC(=O)C2=C(N3CCOCC3)/C(=C/c3ccc(Cl)cc3)CC2)cc(OC)c1OC | inactive: 21.6% |
| CCCn1c(-c2ccc[nH]c2=O)nc2ccccc21 | inactive: 5.99% |
| C/C(Cc1ccccc1)=N/NC(=O)CNC(=O)C(c1ccccc1)c1ccccc1 | inactive: 8.4% |
| CCc1cccc(CC)c1NC(=O)COC(=O)c1cccc(S(=O)(=O)N2CCc3ccccc3C2)c1 | inactive: 11.3% |
